The whole screen tested about 360,000 compounds, of which about 520 (0.14%) were called active. The shares of active, inactive and inconclusive entries below differ from those in the screen. The call rests on the fitted dose curve; in most records, active means well fitted inhibition curve with a large enough effect; inconclusive means small, poorly fitted or top-dose-only effect; inactive means no such curve, though single readings can be large or run the other way. No potency is given beside an inconclusive call; the fits are too rough.
These molecules were tested against Rap guanine nucleotide exchange factor 3 (Homo sapiens) (UniProt O95398) (assay: qHTS for Antagonist of cAMP-regulated guanine nucleotide exchange factor 3 (EPAC1): primary screen). Conditions: EPAC1 GEF assay, Rap1b-BODIPY-GDP exchange fluorescence; activity change, negative = inhibition: at 115 µM (top of the series).
Chain of UniProt O95398 (O95398 whole entry, looked up): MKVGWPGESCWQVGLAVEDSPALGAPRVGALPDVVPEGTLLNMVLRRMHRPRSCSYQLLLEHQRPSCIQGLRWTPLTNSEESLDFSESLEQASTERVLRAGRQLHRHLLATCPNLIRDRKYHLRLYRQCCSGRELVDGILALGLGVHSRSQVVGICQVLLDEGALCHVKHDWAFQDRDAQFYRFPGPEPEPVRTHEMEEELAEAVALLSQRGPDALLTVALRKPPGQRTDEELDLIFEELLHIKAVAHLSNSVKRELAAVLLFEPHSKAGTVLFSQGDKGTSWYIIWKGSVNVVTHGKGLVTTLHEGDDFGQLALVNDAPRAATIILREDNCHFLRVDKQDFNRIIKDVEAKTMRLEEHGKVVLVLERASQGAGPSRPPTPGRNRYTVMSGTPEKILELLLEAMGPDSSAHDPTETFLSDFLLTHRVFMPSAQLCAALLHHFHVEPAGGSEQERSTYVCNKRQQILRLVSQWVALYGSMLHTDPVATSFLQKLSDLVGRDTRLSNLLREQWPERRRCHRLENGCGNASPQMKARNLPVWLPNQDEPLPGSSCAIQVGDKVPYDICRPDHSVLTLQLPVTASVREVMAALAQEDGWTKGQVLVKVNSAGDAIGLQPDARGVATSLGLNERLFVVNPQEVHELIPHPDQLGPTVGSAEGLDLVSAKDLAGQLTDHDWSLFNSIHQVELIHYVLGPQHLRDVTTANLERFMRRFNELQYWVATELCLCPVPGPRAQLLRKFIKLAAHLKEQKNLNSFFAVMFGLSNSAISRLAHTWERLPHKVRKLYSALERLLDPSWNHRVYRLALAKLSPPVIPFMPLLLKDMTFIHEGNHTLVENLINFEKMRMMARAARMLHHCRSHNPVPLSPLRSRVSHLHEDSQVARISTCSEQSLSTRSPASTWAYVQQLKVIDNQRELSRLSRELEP
`COc1ccc(OC)c2sc(N(CCN(C)C)C(=O)c3ccc4ccccc4c3)nc12` was tested, and the Potency was inconclusive [inhibitor, single point].
With `CC(=O)OC[C@H]1O[C@@H](Oc2cc3ccc(=O)oc3cc2OC(C)=O)[C@H](OC(C)=O)[C@@H](OC(C)=O)[C@@H]1OC(C)=O` the “activity change, negative = inhibition” value was inactive: -4.23%.
In the case of `Cc1cc(C)c(C(=O)c2cccs2)c(C)c1`, the “activity change, negative = inhibition” value is reported as inactive: 6.23%.
With `COc1ccc(C)cc1NC(=O)C(C)N1CCOCC1` (centres undefined) the “activity change, negative = inhibition” value was inactive: 4.76%.
In the case of `COc1ccc(C(=O)COC(=O)c2cccs2)cc1`, the “activity change, negative = inhibition” value is reported as inactive: -13.7%.
With `O=C(NCc1ccco1)C1CCCN(S(=O)(=O)c2cccc3nsnc23)C1` (centres undefined) the activity change, negative = inhibition was inconclusive: -11.7% [inhibitor].
In the case of `Clc1ccccc1-c1nnc2sc(-c3ccc4c(c3)OCO4)nn12`, the “activity change, negative = inhibition” value is reported as inactive: 0.154%.
With `Cc1ccc(S(=O)(=O)Nc2ccc3c(c2)nc(CCN2CCN(c4ccccn4)CC2)n3C)cc1` the “activity change, negative = inhibition” value was inactive: 5.8%.
With `COc1cccc(C2CC(C(F)(F)F)n3ncc(C(=O)NCc4ccco4)c3N2)c1` (centres undefined) the Potency was inconclusive [inhibitor, partial curve].
With `Cc1ccc(N=Cc2c(O)c3ccccc3n(C)c2=O)cc1` the Potency was inconclusive [inhibitor, partial curve].
For `Cc1ccc(Cc2c(-c3ccc(Cl)cc3)nc3c(C)cc(Br)cn23)cc1`, the Potency was inconclusive [inhibitor, full curve].
In the case of `CC(C)CN1CCN(C(=O)COC(=O)c2ccc(S(C)(=O)=O)c([N+](=O)[O-])c2)CC1`, the Potency is reported as inconclusive [inhibitor, full curve, poor fit].
In the case of `O=C1OCC2=C1C(c1ccccc1)CC(=O)N2c1ccccc1` (centres undefined), the Potency is reported as inconclusive [inhibitor, single point].
With `CCOc1ccc(N2CC(C(=O)NC3CCCCCC3)CC2=O)cc1` (centres undefined) the Potency was inconclusive [inhibitor, partial curve, poor fit].
For `CC[C@@H]1CCCCc2ccccc2[C@H](C(=O)C[C@H](O)CC(C)=O)OC1=O`, the Potency was inconclusive [inhibitor, single point].
`CCCCn1cnc2c(SCCc3ccccc3)nc(N)nc21` was tested, and the “activity change, negative = inhibition” value was inactive: -12.5%.
In the case of `COc1ccc(-c2cc(=O)c3c(C)cc(O)cc3o2)cc1`, the Potency is reported as inconclusive [inhibitor, full curve].
`COc1nccnc1NS(=O)(=O)c1ccc(NC(=S)NC(=O)/C=C/c2ccccc2)cc1` was tested, and the Potency was inconclusive [inhibitor, partial curve, poor fit].
For `C=CCn1cccc(/C=C/C(=O)c2ccc(C(C)(C)C)cc2)c1=S`, the Potency was inconclusive [inhibitor, single point].
In the case of `Brc1ccc(N/N=C(/N=Nc2nn[nH]n2)c2ccccc2)cc1`, the Potency is reported as inconclusive [inhibitor, single point].
`COc1ccc(CNC(=O)COC(=O)CN2C(=O)C3CC=CCC3C2=O)cc1` (centres undefined) was tested, and the Potency was inconclusive [inhibitor, single point].
In the case of `Cc1cccc(CS(=O)(=O)c2ncc(Cl)c(C(=O)Nc3nnc(C(C)C)s3)n2)c1`, the Potency is reported as inconclusive [inhibitor, single point].
In the case of `C/C(=N/NC(=O)c1cc(C)[nH]n1)c1ccncc1`, the “activity change, negative = inhibition” value is reported as inactive: -8.65%.
For `CCOC(=O)c1sc(NC(=O)CN2C(=O)NC3(CC(C)CC(C)(C)C3)C2=O)cc1C` (centres undefined), the Potency was inconclusive [inhibitor, full curve, poor fit].
For `COc1ccc(NC(=O)CSCC(=O)N2c3ccccc3CCc3ccccc32)cc1`, the Potency was inconclusive [inhibitor, full curve, poor fit].
In the case of `COc1ccc(OCC(=O)NC(=S)NNC(=O)COc2ccc(Br)cc2Cl)cc1`, the “activity change, negative = inhibition” value is reported as inactive: -13.7%.
For `CC(NCc1ccc(F)cc1)C(=O)NC1CCCCC1` (centres undefined), the Potency was inconclusive [inhibitor, single point].
With `Cc1ccc(C)c(S(=O)(=O)N2CCN(Cc3cc4c(cc3O)OCO4)CC2)c1` the Potency was inconclusive [inhibitor, single point].
`Cc1cccc(C2=N/C(=C/c3cccs3)C(=O)O2)c1` was tested, and the Potency was inconclusive [inhibitor, single point].
In the case of `COc1cccc(/C=C2\SC(=S)N(NS(=O)(=O)c3ccccc3)C2=O)c1OC`, the Potency is reported as active: 50.1 µM.
For `Cc1ccc(S(=O)(=O)n2cc(C=O)c3ccccc32)cc1`, the Potency was inconclusive [inhibitor, partial curve, poor fit].
With `O=C(NCc1ccco1)/C(=C\C=C\c1ccccc1)NC(=O)c1ccco1` the Potency was inconclusive [inhibitor, single point].
With `Cc1cccc(N2CCN(C(=O)CSc3ccsc3[N+](=O)[O-])CC2C)c1` (centres undefined) the Potency was inconclusive [inhibitor, single point].
`CCOC(=O)C1CCCN(Cc2c(C(=O)N3CCOCC3)nc3ccccn23)C1` (centres undefined) was tested, and the Potency was inconclusive [inhibitor, partial curve, poor fit].
In the case of `C#CCOCCOCCOCCNc1nc(N2CCN(C(=O)CCCCCCCCCCNC(=O)[C@@H](CCSC)n3cc(CCO)nn3)CC2)nc(N2CCN(C(=O)CCCCCCCCCCNC(=O)[C@H](CCCN=C(N)N)n3cc(C[C@@H](C)CC)nn3)CC2)n1`, the Potency is reported as inconclusive [inhibitor, partial curve].
In the case of `O=C(NCC1CCCN(Cc2ccc3c(c2)OCCO3)C1)c1ccc2c(c1)OCO2` (centres undefined), the Potency is reported as inconclusive [inhibitor, full curve, poor fit].
`CCOC(=O)N1CCC(NC(=O)c2cnn3cccnc23)CC1` was tested, and the Potency was inconclusive [inhibitor, partial curve, poor fit].
In the case of `O=C(O)c1cccc(-c2ccc(/C=N/Nc3ccc([N+](=O)[O-])cc3)o2)c1`, the Potency is reported as inconclusive [inhibitor, single point].
For `CC1CN(C2=CC(=O)CCC2)CC(C)O1` (centres undefined), the “activity change, negative = inhibition” value was inactive: 6.02%.
`Cc1cccc(/C=C(\C(=O)O)c2ccc(S(=O)(=O)N3CCCC3)s2)c1` was tested, and the Potency was inconclusive [inhibitor, single point].
In the case of `O=C(COc1ccccc1)N1CCN(c2ccc([N+](=O)[O-])c(N3CCCCC3)c2)CC1`, the Potency is reported as inconclusive [inhibitor, single point].
`CCOC(=O)/C=C(\C)Sc1cc(O)c2ccccc2c1O` was tested, and the Potency was inconclusive [inhibitor, partial curve].
In the case of `Cc1ccccc1NS(=O)(=O)c1cc2c(cc1C)NC(=O)CO2`, the “activity change, negative = inhibition” value is reported as inactive: 15%.
`COc1ccc(/C=C2\SC(=S)NC2=O)cc1OS(=O)(=O)c1ccc(NC(C)=O)cc1` was tested, and the Potency was inconclusive [inhibitor, partial curve].
`CCOC(=O)c1c(N)sn(-c2ccccc2C)c1=S` was tested, and the “activity change, negative = inhibition” value was inactive: 0%.
In the case of `Cc1ccc(S(=O)(=O)N2CCC(C(=O)OC(C)C(=O)NCc3ccccc3)CC2)cc1C` (centres undefined), the Potency is reported as inconclusive [inhibitor, partial curve, poor fit].
In the case of `Cc1cccc(NC(=O)CSc2nnc(-c3ccco3)c(-c3ccco3)n2)c1C`, the Potency is reported as inconclusive [inhibitor, partial curve, poor fit].
With `Cc1ccccc1N1CCN(C(=O)C2CCCCC2)CC1` the Potency was inconclusive [inhibitor, partial curve].
With `O=C(/C=C/c1ccco1)c1cccc([N+](=O)[O-])c1` the Potency was inconclusive [inhibitor, partial curve].
With `COc1cccc(CN(C)C(=O)CSc2nc3ccccc3[nH]2)c1OC` the “activity change, negative = inhibition” value was inactive: 6.5%.
For `COc1cccc(NC(=O)CSc2nnc(-c3ccco3)c(-c3ccco3)n2)c1`, the Potency was inconclusive [inhibitor, partial curve].
With `CN(C)C1(CN=Cc2cc(Cl)cc([N+](=O)[O-])c2O)CCCCC1` the Potency was inconclusive [inhibitor, partial curve].
In the case of `COc1ccc2nc(-c3ccccc3)cc(C(=O)OCC(=O)N3CC(C)OC(C)C3)c2c1` (centres undefined), the Potency is reported as inconclusive [inhibitor, single point].
`O=C(O)C/C(=C\c1cc(Cl)c2c(c1)OCO2)c1nc2ccccc2s1` was tested, and the Potency was inconclusive [inhibitor, partial curve].
`O=C(O)CC(CCc1ccccc1)OC1OC(CO)C(O)C(O)C1O` (centres undefined) was tested, and the Potency was inconclusive [inhibitor, partial curve].
With `CC(C)NC(=O)c1ccc(Sc2ccccc2)c([N+](=O)[O-])c1` the Potency was inconclusive [inhibitor, partial curve].
`Cc1nnc(SCC2=C(C(=O)O)N3C(=O)C(NC(=O)COc4ccc(F)cc4)C3SC2)s1` (centres undefined) was tested, and the “activity change, negative = inhibition” value was inactive: 0.382%.
`Cc1c(Cl)ccc2c1NC(=O)[C@]21N[C@@H](Cc2ccccc2)[C@H]2C(=O)N(c3ccc(F)cc3)C(=O)[C@H]21` was tested, and the Potency was inconclusive [inhibitor, full curve, poor fit].
In the case of `O=C1Nc2cc(C(=O)NCCN3CCCCCC3)ccc2S/C1=C/c1ccccc1F`, the “activity change, negative = inhibition” value is reported as inactive: 1.83%.
With `O=C(COc1ccc(S(=O)(=O)Nc2ccc(Cl)cc2)cc1)N1CCOCC1` the Potency was inconclusive [inhibitor, partial curve].
With `N#CC(C#N)=C1c2cc(S(N)(=O)=O)ccc2-c2ccc(S(N)(=O)=O)cc21` the “activity change, negative = inhibition” value was inactive: -24.1%.
`O=C(O)CCc1ccc(-c2ccc(Br)cc2)n1-c1ccc(O)cc1` was tested, and the “activity change, negative = inhibition” value was inactive: -16.1%.
With `Cc1cccc(NC(=O)c2sc3nc4c(c(-c5ccco5)c3c2N)CCC4)c1` the activity change, negative = inhibition was inconclusive: 4.74% [inhibitor].
In the case of `CCN1C(=O)/C(=C\c2nc3ccccc3c(=O)n2CC)c2ccccc21`, the Potency is reported as inconclusive [inhibitor, partial curve, poor fit].

Reference: PubChem BioAssay AID720709 (National Center for Advancing Translational Sciences (NCATS), 2013)
Further: nearly all actives have a fitted effect of over 50% in size.
Potency means the concentration at half of the fitted maximal effect; tags describe the fitted curve by direction and shape.
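Wherever activity change, negative = inhibition is given: plate controls were vehicle for no effect and positive control for full effect.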
